The source of these data is PMC6282700 (Cell reports, 2018).

One may read the Kd as the concentration at which binding is half-saturated. A lower Kd goes with higher affinity.

For this experiment, the target named is actin capping protein (CP), mouse α1/β2 heterodimer (mouse, UniProt P47753; P47757-2). Briefly: fluorescence polarisation.

B1: CBR71 fragment of human CARMIL1a ([…]) (domain or fragment)
chain: not shown
On to B1, for which the Kd stood at 0.47 ± 0.13 nM.
